# Results as given in the antibiotic and cytotoxicity screens of Wong et al. (2023).
# Some of the results follow.
# System: HSkMC (human skeletal muscle cells)
# Experiment: cytotoxicity call (relative viability < 0.9)
# Conditions: 10 µM
row,Compound,cytotoxicity call
1,CCS(=O)(=O)N1C[C@]2(CCN(CC2)S(=O)(=O)c2cccs2)c2c(n(c3cc(ccc23)OC)C)[C@H]1CO,inactive
2,CC(C)=C[C@H]1[C@@H](c2nc3ccc(Br)cc3[nH]2)C1(C)C,inactive
3,C[C@@H]1CCCCO[C@H](CN(C)S(=O)(=O)c2cn(C)cn2)[C@@H](C)CN([C@H](C)CO)C(=O)c2cc(NC(=O)CCCN(C)C)ccc2O1,inactive
4,C[C@@H]1CN([C@H](C)CO)C(=O)Cc2cc(NS(=O)(=O)c3ccc(F)cc3)ccc2O[C@@H]1CN(C)Cc1ccc(-c2ccccc2)cc1,active
5,C[C@@H]1CN([C@@H](C)CO)C(=O)c2cc(NC(=O)Nc3ccc(C(F)(F)F)cc3)ccc2O[C@H]1CN(C)C(=O)Nc1ccccc1,inactive
6,Cc1noc(C)c1S(=O)(=O)N(C)C[C@H]1OCc2cn(nn2)CCCC(=O)N([C@@H](C)CO)C[C@@H]1C,inactive
7,Cc1noc(C)c1S(=O)(=O)Nc1cccc2c1O[C@H](CN(C)Cc1ccc(C(=O)O)cc1)[C@H](C)CN([C@H](C)CO)C2=O,inactive

# System: HepG2
# Experiment: cytotoxicity call (relative viability < 0.9)
# Conditions: 10 µM
row,Compound,cytotoxicity call
1,O=C(CN1CCOCC1)NCC[C@H]1CC[C@H](NC(=O)Nc2ccccc2)[C@H](CO)O1,inactive
2,C[C@@H]1CN([C@H](C)CO)S(=O)(=O)c2ccc(C#CC(C)(C)O)cc2O[C@@H]1CN(C)C(=O)CN(C)C,inactive
3,COc1cccc(-c2cnc3c(c2)C(=O)N([C@H](C)CO)C[C@H](C)[C@H](CN(C)S(=O)(=O)c2cccc(F)c2)O3)c1,inactive
4,Cc1noc(C)c1NC(=O)N(C)C[C@H]1OCCCC[C@@H](C)Oc2ccc(NC(=O)CCC(F)(F)F)cc2C(=O)N([C@@H](C)CO)C[C@H]1C,inactive
5,Cc1ccc(S(=O)(=O)N[C@@H](Cc2ccccc2)C(=O)NCCn2cc(CCC(=O)NO)nn2)cc1,active
6,CN1CCN(C(=O)C[C@@H]2CC[C@H]3[C@@H](COc4ccc(NC(=O)C5CCCCC5)cc4C(=O)N3C)O2)CC1,inactive
7,Cc1cccc(S(=O)(=O)N2C[C@@H](O)COC[C@H]3O[C@@H](CC(=O)NCc4ccncn4)CC[C@@H]32)c1,inactive
8,C[C@@H]1CN([C@@H](C)CO)C(=O)c2c(c3ccccc3n2C)-c2ccccc2CO[C@H]1CN(C)C(=O)Nc1ccccc1,inactive
9,COc1ccc(S(=O)(=O)N[C@H]2C=C[C@@H](CC(=O)N3CCN(c4ccccc4)CC3)O[C@@H]2CO)cc1,inactive
10,C[C@@H]1CN([C@H](C)CO)C(=O)c2cc(NC(=O)Cc3ccccc3)ccc2O[C@@H](C)CCCCO[C@@H]1CN(C)Cc1ccncc1,inactive
11,CN(C)C(=O)C[n+]1ccc(/C=N/O)cc1,inactive
12,C[C@H](CO)N1C[C@H](C)[C@H](CN(C)C(=O)c2ccccc2)OCCCC[C@H](C)Oc2ccc(NC(=O)Nc3cccc4ccccc34)cc2C1=O,inactive
13,Cc1nn(C)cc1NC(=O)C[C@H]1CC[C@@H]2[C@@H](COc3ccc(NC(=O)C4CCOCC4)cc3C(=O)N2C)O1,inactive
14,CNC[C@@H]1Oc2ccc(NC(=O)Cn3cnnn3)cc2CC(=O)N([C@H](C)CO)C[C@H]1C,inactive
15,COc1ccc(NC(=O)Nc2ccc3c(c2)CC(=O)N([C@H](C)CO)C[C@H](C)[C@@H](CN(C)C(=O)Nc2cccc4ccccc24)O3)cc1,inactive
16,C=CCSc1nc(=O)cc(N)[nH]1,inactive
17,COCC(=O)N1C[C@H](C)[C@@H](OC)CN(C)C(=O)c2ccc(NC(=O)Nc3cccc(F)c3)cc2OC[C@H]1C,inactive
18,O=C(C[C@H]1CC[C@@H](NC(=O)Cc2ccccn2)[C@H](CO)O1)NCCCN1CCOCC1,inactive
19,C[C@@H]1CN([C@@H](C)CO)C(=O)Cc2cc(NC(=O)CCC(F)(F)F)ccc2O[C@H]1CN(C)Cc1ccc(C(=O)Nc2ccccc2N)cc1,inactive
20,Cn1cccc1CNCCCN1CCOCC1,inactive

row,Compound,cytotoxicity call
1,C[C@@H]1CN([C@@H](C)CO)C(=O)c2cc(NC(=O)CCC(F)(F)F)ccc2O[C@@H](C)CCCCO[C@H]1CN(C)S(=O)(=O)c1ccccc1,inactive
2,Cc1ccc(S(=O)(=O)Nc2ccc3c(c2)C(=O)N([C@H](C)CO)C[C@@H](C)[C@@H](CN(C)C(=O)C2CCCCC2)OCCCC[C@@H](C)O3)cc1,inactive
3,Cc1cc(C(=O)Nc2cccc3c2O[C@H](CN(C)Cc2ccc(C(=O)O)cc2)[C@@H](C)CN([C@H](C)CO)C3=O)n(C)n1,inactive
4,CCS(=O)(=O)N1C[C@]2(CN(Cc3cc(ccc3F)F)[C@H](CO)c3c2c2ccc(cc2n3C)OC)C1,inactive
5,O=C(O)C1C(=CCO)OC2CC(=O)N21.[LiH] (configuration not stated),inactive
6,CC(C)(CO)[C@H](O)C(=O)NCCC(=O)NCCSSCCNC(=O)CCNC(=O)[C@H](O)C(C)(C)CO,inactive
7,O=C(C=CC=Cc1ccc2c(c1)OCO2)N1CCCCC1,inactive
8,CC1COC2=C1C(=O)C(=O)c1c2ccc2c1CCCC2(C)C (configuration not stated),active
9,C[C@H]1CN([C@@H](C)CO)C(=O)c2cc(NC(=O)Nc3cccc4ccccc34)ccc2O[C@@H]1CN(C)S(=O)(=O)c1ccc(F)cc1,inactive
10,C[C@@H]1CN([C@H](C)CO)C(=O)Cc2cc(NC(=O)c3ccncc3)ccc2O[C@@H]1CN(C)S(=O)(=O)c1ccccc1,inactive
11,CCC(=O)Oc1ccc2c(c1)CCC1C2CCC2(C)C1CC(OC(=O)CC)C2OC(=O)CC (configuration not stated),inactive
12,C[C@@H]1CN([C@@H](C)CO)S(=O)(=O)c2ccc(C3=CCCC3)cc2O[C@H]1CN(C)S(=O)(=O)c1ccc(F)cc1,inactive
13,COC(=O)CC1(N)CCCCC1,inactive
14,CCS(=O)(=O)N1C[C@]2(CCN(CC2)S(=O)(=O)c2cccs2)c2c(n(c3cc(ccc23)OC)C)[C@H]1CO,inactive
15,CC(C)=C[C@H]1[C@@H](c2nc3ccc(Br)cc3[nH]2)C1(C)C,inactive
16,C[C@@H]1CCCCO[C@H](CN(C)S(=O)(=O)c2cn(C)cn2)[C@@H](C)CN([C@H](C)CO)C(=O)c2cc(NC(=O)CCCN(C)C)ccc2O1,inactive
17,C[C@@H]1CN([C@H](C)CO)C(=O)Cc2cc(NS(=O)(=O)c3ccc(F)cc3)ccc2O[C@@H]1CN(C)Cc1ccc(-c2ccccc2)cc1,active
18,C[C@@H]1CN([C@@H](C)CO)C(=O)c2cc(NC(=O)Nc3ccc(C(F)(F)F)cc3)ccc2O[C@H]1CN(C)C(=O)Nc1ccccc1,inactive
19,Cc1noc(C)c1S(=O)(=O)N(C)C[C@H]1OCc2cn(nn2)CCCC(=O)N([C@@H](C)CO)C[C@@H]1C,inactive
20,Cc1noc(C)c1S(=O)(=O)Nc1cccc2c1O[C@H](CN(C)Cc1ccc(C(=O)O)cc1)[C@H](C)CN([C@H](C)CO)C2=O,active
